These are yes or no findings as the source states them, for the method shown. Binding seen in cells or lysates may run through a third protein. Some entries that bind do so weakly or less than the wild type.

Chains of the proteins cited; added tags and fusions are not shown. Lines headed by an entry give the natural chain unless they say otherwise; changes in a name come on top.
UniProt Q9Y4L5: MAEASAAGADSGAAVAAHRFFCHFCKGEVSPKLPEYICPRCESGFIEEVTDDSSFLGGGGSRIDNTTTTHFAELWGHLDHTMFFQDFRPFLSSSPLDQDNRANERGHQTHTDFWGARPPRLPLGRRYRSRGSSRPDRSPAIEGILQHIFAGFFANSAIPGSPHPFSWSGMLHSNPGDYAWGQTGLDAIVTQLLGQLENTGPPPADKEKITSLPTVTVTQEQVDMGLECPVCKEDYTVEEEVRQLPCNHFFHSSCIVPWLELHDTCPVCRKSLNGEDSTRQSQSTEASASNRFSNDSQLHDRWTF

In assay [1] the target is T1, IRF1 (interferon regulatory factor 1), endogenous (human (endogenous in HEK293T, MCF-7, MDA-MB-231, MCF-12F)) (UniProt P10914).
T1 sequence: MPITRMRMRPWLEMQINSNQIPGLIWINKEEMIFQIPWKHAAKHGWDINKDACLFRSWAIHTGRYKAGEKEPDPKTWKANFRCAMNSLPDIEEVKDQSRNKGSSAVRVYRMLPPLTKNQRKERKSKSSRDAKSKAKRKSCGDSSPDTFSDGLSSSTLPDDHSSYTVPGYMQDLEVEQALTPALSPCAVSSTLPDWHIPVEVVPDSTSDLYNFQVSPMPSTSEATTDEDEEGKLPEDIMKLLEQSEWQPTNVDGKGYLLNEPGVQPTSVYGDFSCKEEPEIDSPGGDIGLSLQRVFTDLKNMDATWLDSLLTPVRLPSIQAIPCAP
Put plainly: co-IP; HEK293T cells transfected with HA-tagged constructs; endogenous IRF1 immunoprecipitated with anti-IRF1 on protein G magnetic beads from pre-cleared lysate, overnight at 4°C; HA-tagged constructs looked for in the pulldown fraction by western blot. For orientation: A western blot detects proteins with antibodies after separation by electrophoresis.

In assay [2] the target is T1, IRF1 (interferon regulatory factor 1), endogenous (human (endogenous in HEK293T, MCF-7, MDA-MB-231, MCF-12F)). Briefly: co-IP; MCF-7 (ER+) cells transfected with HA-tagged constructs; endogenous IRF1 immunoprecipitated with anti-IRF1 on protein G magnetic beads from pre-cleared lysate, overnight at 4°C; HA-tagged constructs looked for in the pulldown fraction by western blot.

“HA-BCA2-△C-GST (BCA2 amino acids 1-147, C-terminus replaced by GST) (from UniProt Q9Y4L5 1-147) (domain or fragment)”: the binding result in assay [1] and in assay [2] was “binds” in each case.

In the case of “HA-ΔBZF (BCA2 amino acids 47-304, lacking the zinc-finger domain) (from UniProt Q9Y4L5 47-304) (domain or fragment)”, the binding entry in assay [1] and in assay [2] was “no binding” throughout.

Consider “HA-BCA2-△Ring (BCA2 amino acids 1-227) (from UniProt Q9Y4L5 1-227) (domain or fragment)”, for which the binding result in assay [1] is listed as “binds”.

The record behind these values is paper PMC8473798.
